# Results are given in words; binding and its absence hold for the method and conditions named. Binding seen in cells or lysates may run through a third protein. Some results given as binding are weak or reduced against the parent protein; the word gives no strength. For some assays here: Sequences can lack the tags named with a protein.
# The chains behind the UniProt entries cited, without tags or fusion partners.
# UniProt Q9WTL8: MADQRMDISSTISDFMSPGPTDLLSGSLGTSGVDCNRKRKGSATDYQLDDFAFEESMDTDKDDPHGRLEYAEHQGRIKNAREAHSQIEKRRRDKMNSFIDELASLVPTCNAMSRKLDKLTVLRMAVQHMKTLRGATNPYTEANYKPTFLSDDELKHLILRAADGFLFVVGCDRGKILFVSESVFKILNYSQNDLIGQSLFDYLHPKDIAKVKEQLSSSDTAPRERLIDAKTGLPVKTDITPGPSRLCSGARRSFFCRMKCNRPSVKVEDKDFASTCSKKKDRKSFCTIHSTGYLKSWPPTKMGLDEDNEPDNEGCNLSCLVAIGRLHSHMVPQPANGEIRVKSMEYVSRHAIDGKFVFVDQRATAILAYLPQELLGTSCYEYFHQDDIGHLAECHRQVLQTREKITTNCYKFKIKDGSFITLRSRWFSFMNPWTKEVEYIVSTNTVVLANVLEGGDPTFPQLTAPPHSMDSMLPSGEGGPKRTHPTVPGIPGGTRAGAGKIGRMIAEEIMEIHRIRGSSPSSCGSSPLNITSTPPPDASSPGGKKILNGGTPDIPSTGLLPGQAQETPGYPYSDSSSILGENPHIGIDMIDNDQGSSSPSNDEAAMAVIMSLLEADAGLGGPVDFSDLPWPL
# T1: SGT1, endogenous in U2OS cells (human (endogenous in U2OS)) (UniProt Q9Y2Z0)
# T1 sequence: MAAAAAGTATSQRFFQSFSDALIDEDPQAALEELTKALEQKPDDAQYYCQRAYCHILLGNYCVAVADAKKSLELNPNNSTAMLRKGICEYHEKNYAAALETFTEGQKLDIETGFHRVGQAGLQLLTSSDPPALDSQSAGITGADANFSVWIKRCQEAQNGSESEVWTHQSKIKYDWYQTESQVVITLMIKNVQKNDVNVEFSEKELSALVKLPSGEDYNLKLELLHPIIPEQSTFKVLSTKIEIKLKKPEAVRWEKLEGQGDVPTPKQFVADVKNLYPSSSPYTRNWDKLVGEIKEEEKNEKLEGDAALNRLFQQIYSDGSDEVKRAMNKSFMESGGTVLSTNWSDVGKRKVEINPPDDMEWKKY
# T2: FLAG-tagged necdin, full length (UniProt P25233)
# T2 sequence: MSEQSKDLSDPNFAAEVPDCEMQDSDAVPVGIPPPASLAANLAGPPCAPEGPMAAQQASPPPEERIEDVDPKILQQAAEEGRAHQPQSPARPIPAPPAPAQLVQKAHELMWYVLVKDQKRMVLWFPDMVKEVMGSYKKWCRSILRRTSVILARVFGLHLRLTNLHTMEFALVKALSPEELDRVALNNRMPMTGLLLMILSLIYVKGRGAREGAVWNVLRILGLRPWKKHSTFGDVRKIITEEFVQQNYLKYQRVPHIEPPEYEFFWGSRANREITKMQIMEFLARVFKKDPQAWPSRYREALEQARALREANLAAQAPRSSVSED
# T3: FLAG-tagged necdin fragment, amino acids 190-325 (UniProt P25233)
# T3 sequence: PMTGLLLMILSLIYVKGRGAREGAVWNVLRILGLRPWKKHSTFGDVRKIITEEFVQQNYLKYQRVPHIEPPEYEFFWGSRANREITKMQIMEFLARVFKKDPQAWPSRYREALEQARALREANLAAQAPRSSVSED
# T4: HA-tagged SGT1 (UniProt Q9CX34)
# T4 sequence: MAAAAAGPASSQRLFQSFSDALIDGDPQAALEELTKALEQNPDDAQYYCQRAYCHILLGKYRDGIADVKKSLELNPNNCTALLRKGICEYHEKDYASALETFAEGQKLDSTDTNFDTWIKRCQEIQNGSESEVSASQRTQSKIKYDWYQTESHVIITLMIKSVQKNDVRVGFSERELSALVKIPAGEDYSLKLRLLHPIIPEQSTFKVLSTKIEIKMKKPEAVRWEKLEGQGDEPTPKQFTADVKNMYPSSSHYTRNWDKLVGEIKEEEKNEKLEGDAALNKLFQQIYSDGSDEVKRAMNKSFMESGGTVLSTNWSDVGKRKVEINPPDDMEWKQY
# Key:
# [1] = target: T1, SGT1, endogenous in U2OS cells (human (endogenous in U2OS)); assay: co-IP; endogenous proteins in U2OS cell lysate; antibody against necdin or SGT1 or control IgG, protein G agarose, immunoblot
# [2] = target: T2, FLAG-tagged necdin, full length; assay: co-IP; two tagged proteins co-expressed in HEK293T cells; lysis buffer 150 mM NaCl, 1% NP-40, 2 mM EDTA, 50 mM Tris pH 8.0; antibody to the tag overnight at 4 C, protein G agarose, immunoblot
# [3] = target: T3, FLAG-tagged necdin fragment, amino acids 190-325; assay: as above
# [4] = target: HA-tagged BMAL1 (UniProt Q9WTL8); assay: as above
# [5] = target: T4, HA-tagged SGT1; assay: as above
binder,measurement,setting,value
"necdin, endogenous in U2OS cells (protein, UniProt Q99608 1-321) MSEQSKDLSDPNFAAEAPNSEVHSSPGVSEGVPPSATLAEPQSPPLGPTAAPQAAPPPQAPNDEGDPKALQQAAEEGRAHQAPSAAQPGPAPPAPAQLVQKAHELMWYVLVKDQKKMIIWFPDMVKDVIGSYKKWCRSILRRTSLILARVFGLHLRLTSLHTMEFALVKALEPEELDRVALSNRMPMTGLLLMILSLIYVKGRGARESAVWNVLRILGLRPWKKHSTFGDVRKLITEEFVQMNYLKYQRVPYVEPPEYEFFWGSRASREITKMQIMEFLARVFKKDPQAWPSRYREALEEARALREANPTAHYPRSSVSED",binding,[1],binds
"HA-tagged SGT1 (protein, UniProt Q9CX34 1-336) MAAAAAGPASSQRLFQSFSDALIDGDPQAALEELTKALEQNPDDAQYYCQRAYCHILLGKYRDGIADVKKSLELNPNNCTALLRKGICEYHEKDYASALETFAEGQKLDSTDTNFDTWIKRCQEIQNGSESEVSASQRTQSKIKYDWYQTESHVIITLMIKSVQKNDVRVGFSERELSALVKIPAGEDYSLKLRLLHPIIPEQSTFKVLSTKIEIKMKKPEAVRWEKLEGQGDEPTPKQFTADVKNMYPSSSHYTRNWDKLVGEIKEEEKNEKLEGDAALNKLFQQIYSDGSDEVKRAMNKSFMESGGTVLSTNWSDVGKRKVEINPPDDMEWKQY",binding,[2],binds
same,binding,[3],binds
"FLAG-tagged necdin, full length (protein, UniProt P25233 1-325) MSEQSKDLSDPNFAAEVPDCEMQDSDAVPVGIPPPASLAANLAGPPCAPEGPMAAQQASPPPEERIEDVDPKILQQAAEEGRAHQPQSPARPIPAPPAPAQLVQKAHELMWYVLVKDQKRMVLWFPDMVKEVMGSYKKWCRSILRRTSVILARVFGLHLRLTNLHTMEFALVKALSPEELDRVALNNRMPMTGLLLMILSLIYVKGRGAREGAVWNVLRILGLRPWKKHSTFGDVRKIITEEFVQQNYLKYQRVPHIEPPEYEFFWGSRANREITKMQIMEFLARVFKKDPQAWPSRYREALEQARALREANLAAQAPRSSVSED",binding,[4],binds
same,binding,[5],binds

# — PMC7430654
